# From the antibiotic and cytotoxicity screens of Wong et al. (2023)
# Some of the results follow.
# Tested on: HSkMC (human skeletal muscle cells)
# Test: cytotoxicity call (relative viability < 0.9)
# Conditions: 10 µM
row,Structure (SMILES),cytotoxicity call
1,NCC[C@@H]1CC[C@@H](NC(=O)c2ccccc2F)[C@H](CO)O1,inactive
2,COc1ccccc1[C@@H](NC(=O)C1CCN(CCOc2ccc(Cl)cc2Cl)CC1)c1ccccn1,inactive
3,Cc1ccc(S(=O)(=O)N(C)C[C@@H]2Oc3c(NC(=O)Nc4cccc5ccccc45)cccc3C(=O)N([C@H](C)CO)C[C@H]2C)cc1,inactive
4,C[C@H](CO)N1C[C@H](C)[C@@H](CN(C)C(=O)Nc2ccc3c(c2)OCCO3)OCc2cn(nn2)CCCC1=O,inactive
5,CCCCCCCCCC(=O)N[C@@H](Cc1c[nH]c2ccccc12)C(=O)N[C@H](CC(N)=O)C(=O)N[C@@H](CC(=O)O)C(=O)N[C@@H]1C(=O)NCC(=O)N[C@@H](CCCN)C(=O)N[C@@H](CC(=O)O)C(=O)N[C@H](C)C(=O)N[C@@H](CC(=O)O)C(=O)NCC(=O)N[C@H](CO)C(=O)N[C@@H]([C@H](C)CC(=O)O)C(=O)N[C@@H](CC(=O)c2ccccc2N)C(=O)O[C@@H]1C,inactive
6,C[C@@H]1CN([C@@H](C)CO)S(=O)(=O)c2ccc(-c3cccc(C#N)c3)cc2O[C@@H]1CN(C)C(=O)c1ccncc1,inactive
7,Cc1noc(C)c1S(=O)(=O)N(C)C[C@@H]1Oc2c(NS(=O)(=O)c3cn(C)cn3)cccc2C(=O)N([C@H](C)CO)C[C@H]1C,inactive
8,C[C@@H]1CN([C@@H](C)CO)C(=O)c2cc(NC(=O)CCCCCC(=O)Nc3ccccc3N)ccc2O[C@H]1CN(C)CC1CCCCC1,inactive
9,O=C(CN1C(=O)c2cccc3cccc(c23)C1=O)N1CCN(CCN2C(=O)[C@@H]3[C@@H](C2=O)[C@@H]2C=C[C@@H]3C2)CC1,inactive
